About 1,700 (3.3%) of roughly 52,000 compounds were called active. Rule as the data show it: active = survival mostly below about 52% (no sharp cut-off); inactive = mostly above about 56%. This is one part of the list.

In this assay the test system is Wild type. Briefly: growth inhibition of S. aureus wild type versus tarO mutant, primary screen, teichoic acid synthesis inhibitors, RN4220, OD600 (AID 463173). The settings on record: S. aureus RN4220 wild type/DeltatarO growth, OD600, 18 h, hits give low values, screened at 18.75 µg/mL (by protocol).
As for `COc1ccc(CNC(=O)c2ccc3c(c2)N(Cc2ccccc2C)C(=O)c2ccccc2S3=O)cc1` (stereo not drawn), the survival was inactive: 73%. In the case of `O=C(NCc1ccc(F)cc1)C1CCN(c2ncnc3c2nc2n3CCCCC2)CC1`, the survival is inactive: 93%. Regarding `COc1ccc(CNc2oc(/C=C/c3cccc(OC)c3)nc2C#N)cc1`, the survival is inactive: 75%. Regarding `O=C(CN1CCC(N2CCCCC2)CC1)c1ccc2c(c1)OCCO2`, the survival is inactive: 128%.

In the case of `COc1cc(C(CC(=O)Nc2cc(C)ccc2C)N2Cc3ccccc3C2=O)cc(OC)c1OC` (stereo not drawn), the survival was inactive: 75%. For `CN(Cc1ccccc1)C(=O)c1cccc(NC(=O)c2nsc3ccccc23)c1`, the survival is inactive: 100%. To `CCOCCCNC(=O)c1cn(CC)c2ccc(S(=O)(=O)N3CCc4ccccc4C3)cc2c1=O` belongs inactive: 78%; to `Cc1ccc2nc(-c3ccncc3)c(Nc3ccc(C(C)C)cc3)n2c1`, inactive: 78%; to `CCOC(=O)c1[nH]c(C)c(CCC(=O)N2CCN(c3cccc(C)c3C)CC2)c1C`, inactive: 89%. Regarding `CC(=O)c1ccc(NC(c2ccc(F)cc2)c2nnc(-c3ccccc3)o2)cc1` (stereo not drawn), the survival was inactive: 85%. On to `CC(C)(C)OC(=O)N1CCC(c2c(C(=O)N3CCN(c4ccccn4)CC3)cnn2-c2ccccc2Cl)CC1`, for which the survival is inactive: 53%. `CCOCCc1nn2c(=O)cc(COC(=O)CNC(=O)c3ccc(F)cc3)nc2s1`: the survival was inactive: 71%. As to `Cc1ccc(CSc2nc(-c3ccc(C(C)(C)C)cc3)nc3cc(=O)[nH]n23)cc1`, the survival was inactive: 113%. Regarding `CCc1ccc(Nc2sc(C(=O)c3ccccc3)c(N)c2S(C)(=O)=O)cc1`, the survival was inactive: 72%.

In the case of `CCOc1ccc(CC(=O)NCCc2csc(-c3ccc(Cl)cc3)n2)cc1`, the survival is inactive: 73%.

As to `COC(=O)c1c(-c2cccs2)csc1NC(=O)c1cc(OC)c(OC)c(OC)c1`, the survival is inactive: 76%. Consider `CC(C)CCNC(=O)c1nn(C)c2c1CSc1ccccc1-2`, for which the survival is inactive: 89%. The same measure for `COc1ccc(-c2cn3c(n2)sc2cc(C(=O)Nc4ccc(F)cc4Cl)ccc23)cc1`: inactive: 88%; for `COc1ccc(-n2ccn(CC(=O)Nc3ccc(C)c(C)c3)c(=O)c2=O)cc1OC`: inactive: 96%. Take `CCOc1cc2[nH]c(=O)n(CCCC(=O)NCc3ccc(OC)cc3)c(=O)c2cc1OCC`: the survival is inactive: 74%. On to `Cc1ccc(NC(=O)C(=O)NCC(c2cccnc2)N2CCc3ccccc3C2)cc1` (stereo not drawn), for which the survival was inactive: 83%. To `C=Cc1ccc(Cn2c(C(=O)O)c(CNCc3ccccc3)c3ccc(OC)cc32)cc1` belongs inactive: 107%; to `CC1CCCN(S(=O)(=O)c2cc(C(=O)NCc3ccccc3Cl)n(C)c2)C1` (stereo not drawn), inactive: 71%; to `Cc1ccc(F)cc1NC(=O)CCSc1nc(-c2ccco2)cc(C(F)(F)F)n1`, inactive: 69%.

`O=C(c1ccc(-n2cnnn2)cc1)N(C1CCCCC1)C1CCCCC1`: the survival was inactive: 109%.

Take `CCN(C(=O)c1cc2cc(Br)cc(OC)c2oc1=O)c1ccccc1`: the survival is inactive: 76%.

With `O=C(CSCc1ccccc1Cl)N/N=C/c1ccc(O)cc1O`, the survival was inactive: 122%. Turning to `O=C(NC1CCCCCC1)c1ccc(CS(=O)c2ccc(Br)cc2)o1` (stereo not drawn), the survival is inactive: 94%.

Take `O=C(COC(=O)c1cccs1)Nc1ccccc1`: the survival is inactive: 119%.

Turning to `COc1cccc(C2c3c(-c4ccccc4O)n[nH]c3C(=O)N2Cc2cccnc2)c1` (stereo not drawn), the survival was inactive: 89%. The same measure for `O=S(=O)(Nc1ccc(-c2ccc(N3CCCC3)nn2)cc1)c1ccc(OC(F)(F)F)cc1`: active: -6%; for `Cc1ccc(NC(=O)CSCc2cnn(-c3ccccc3)c2-n2cccc2)c(Cl)c1`: inactive: 86%; for `CCc1ccccc1NC(=O)Cn1c(=O)n(-c2ccc(C)c(C)c2)c(=O)c2oc3ccccc3c21`: inactive: 86%. For the compound `Nc1ncc(Cc2ccccc2)s1`, the survival was inactive: 97%. To `COc1cc(Br)ccc1C1C(C(=O)Nc2ccc(C)cc2C)=C(C)Nc2nnnn21` (stereo not drawn) belongs inactive: 171%. As to `COc1ccc(CCNc2nc3ccccc3c3nc(-c4cccc(C)c4)nn23)cc1OC`, the survival is inactive: 24%.

Regarding `COc1ccc(S(=O)(=O)NCCc2sc(-c3cccc(C)c3)nc2C)cc1`, the survival is inactive: 72%. As to `Cc1ccc(CCNC(=O)c2cccc(Nc3nc4ccccc4nc3-n3nc(C)cc3C)c2)cc1`, the survival is inactive: 70%. The same measure for `Cc1nn(CC(=O)N2CCN(c3cccc(Cl)c3)CC2)c(=O)c2c1sc1ccccc12`: inactive: 82%. For the compound `CCOC(=O)c1ccc(NC(=O)CCc2c(C)nc3c(c(C)nn3C(C)(C)C)c2C)cc1`, the survival was inactive: 75%. As for `CCc1ccc(-n2nc(C)c3c(C(=O)N4CCN(c5cccc(Cl)c5)CC4)cc(C)nc32)cc1`, the survival was inactive: 124%. `CC(C)CCNC(=O)c1ccc(Cn2c(SCC(N)=O)nc3ccccc3c2=O)cc1`: the survival is inactive: 64%. Regarding `CCOc1cc(C(=O)OCc2cc(=O)n3nc(C4CC4)sc3n2)cc(OCC)c1OCC`, the survival was inactive: 71%. Consider `O=c1sc(Nc2ccccc2)nc2ccccc12`, for which the survival was inactive: 106%. Turning to `COc1cc(OC)c(NC(=O)NCc2cccn2Cc2ccccc2)cc1Cl`, the survival was inactive: 87%.

With `CCCc1ccc(-c2ccc(C(=O)Oc3ccc(Br)cc3)cc2)nc1`, the survival is inactive: 140%. Consider `CCOc1ccc(NC(=O)Cn2c(=O)c(CNc3ccccc3)cc3cc4c(cc32)OCCO4)cc1`, for which the survival is inactive: 65%. `O=C1COc2cc(S(=O)(=O)CCC(=O)N3CCN(c4ccccc4)CC3)c(Cl)cc2N1`: the survival is inactive: 95%. As for `Cc1ccc(S(=O)(=O)NCCc2nnc3ccc(SCC(=O)Nc4ccc(OC(F)(F)F)cc4)nn23)cc1`, the survival was inactive: 89%. For `CN(C(=O)Cn1ncc2c1-c1ccccc1OC2)c1ccc(Br)cc1`, the survival is inactive: 73%. For `CCS(=O)(=O)c1cccc(C(=O)N2CCN(c3nc4c(C)ccc(Cl)c4s3)CC2)c1`, the survival is inactive: 73%. Take `CCCCCn1c(CNC(=O)c2ccc(F)cc2)nc2ccccc21`: the survival was inactive: 90%. To `COC(=O)c1ccc(CSc2nc3c([nH]c4ccccc43)c(=O)n2-c2cc(C)cc(C)c2)o1` belongs active: 0%. Consider `COc1ccc(OC)c(CCNC(=O)C(C)n2c(C)c3cnn(-c4ccccc4)c(=O)c3c2C)c1` (stereo not drawn), for which the survival was inactive: 87%.

As for `COc1ccccc1CNS(=O)(=O)c1ccc(N2CCCCS2(=O)=O)cc1`, the survival is inactive: 73%. In the case of `CN(C)C1(CNC(=O)COc2ccc(C(C)(C)C)cc2)CCCCC1`, the survival is inactive: 97%. Regarding `CCOC(=O)c1c(C)[nH]c(C)c1S(=O)(=O)N1CCC(C(=O)NCc2ccc(N(C)C)cc2)CC1`, the survival was inactive: 55%. As to `CCCCCn1c(-c2cccc(C)c2)nc2ccccc21`, the survival is active: 11%. As for `O=C(Nc1ccc2c(c1)OCO2)c1cc(-c2ccc(Cl)cc2)on1`, the survival was inactive: 92%. As for `COc1ccccc1OCC(=O)Nc1c(C(=O)c2ccc(C)cc2)oc2ccccc12`, the survival is inactive: 73%. To `Cc1cc(C)cc(-n2ccnc(NCc3ccc(F)cc3)c2=O)c1` belongs inactive: 70%; to `COc1ccc(Cl)cc1C(=O)Nc1c2c(nn1-c1ccc(Cl)cc1)CS(=O)(=O)C2`, inactive: 97%; to `COc1ccccc1NC(=O)c1oc2ccccc2c1NC(=O)COc1ccccc1OC`, inactive: 86%.

Consider `COc1ccc(Cl)cc1NC(=O)CSc1nc(=O)[nH]c2c1CCCC2`, for which the survival is inactive: 71%.

Regarding `CCOc1ccc(CNC(=O)C2=Cc3cc(Br)ccc3OC2)cc1OC`, the survival is inactive: 78%. Turning to `Cc1ccc(Cn2c(=O)n(-c3ccc(C)c(C)c3)c(=O)c3c(C)c(C)sc32)cc1`, the survival was active: 46%. In the case of `CCOc1ccc(NC(=O)Cn2cc(C(=O)c3ccccc3)c(=O)c3cc4c(cc32)OCO4)cc1`, the survival was inactive: 80%.

`COc1cc(NC(=O)N2CCC(CN3CCc4ccccc4C3)CC2)cc(OC)c1`: the survival was inactive: 81%. As to `Cc1ccc2oc(-c3ccc(NC(=O)c4cccc(F)c4)c(C)c3)nc2c1`, the survival is inactive: 100%. Regarding `CC(=O)N1c2c(cc(Br)cc2S(=O)(=O)NCc2ccccc2Cl)CC1C` (stereo not drawn), the survival is inactive: 73%. Take `COc1ccc(NC(=O)c2cc(C)nc3c2c(C)nn3-c2cccc(Cl)c2C)c(OC)c1`: the survival is inactive: 85%. With `COc1cc(Cl)c(NC(=O)CN(C)S(=O)(=O)c2ccc3c(c2)CCCC(=O)N3)c(OC)c1`, the survival is inactive: 59%.

With `CCOc1ccc(OCC)c(NC(=O)c2csc3c2CCCC3)c1`, the survival was active: -1%.

`Cc1ccc(-c2nnc(Nc3cccc(O)c3)c3ccccc23)cc1S(=O)(=O)N1CCCCC1`: the survival is inactive: 87%. Regarding `COc1ccc(CCNC(=O)c2cc(S(=O)(=O)N3CCCC(C)C3)cn2C)cc1OC` (stereo not drawn), the survival is inactive: 60%. The same measure for `O=C(O)c1ccc2c(c1)N(Cc1ccc(F)cc1Cl)C(=O)c1ccccc1S2`: inactive: 60%. As to `COc1ccc(NC(=O)CCS(=O)(=O)c2nc(-c3ccc4c(c3)OCO4)cc(C(F)(F)F)n2)c(OC)c1`, the survival is inactive: 91%. Regarding `COC(=O)C1C(=O)C2=C(CC1C)Nc1ccccc1NC2c1cc(F)ccc1F` (stereo not drawn), the survival was inactive: 123%.

Consider `CC(CNC(=O)CCCn1c(=O)c2cccn2c2ccccc21)c1ccccc1` (stereo not drawn), for which the survival was inactive: 54%. With `CC(C)N(Cc1ccccc1)C(=O)CN1C(=O)COc2ccc(S(=O)(=O)N3CCCCCC3)cc21`, the survival is inactive: 93%. On to `CCN(C(=O)c1cnc(N2CCOCC2)c2ccccc12)c1cc(C)ccc1C`, for which the survival was inactive: 71%.

On to `CCOc1ccccc1NC(=O)c1ccc2c(Cl)c3c(nc2c1)CCCC3`, for which the survival was inactive: 46%. Take `Cc1cc(NC(=O)C(C)(C)Oc2ccc(Cl)cc2)cc(-c2nc3ncccc3o2)c1O`: the survival was inactive: 92%.

`CCOc1ccc(-c2nnc(SCC(=O)NCCc3ccccc3)nc2-c2ccc(OCC)cc2)cc1`: the survival is inactive: 73%.

Turning to `COc1cccc(CNc2nc3c(-c4cccc(C)c4)nnn3c3ccccc23)c1`, the survival was inactive: 84%.

For the compound `CC(=O)Nc1ccc(NC(=O)CCC(=O)c2ccc(C)cc2)cc1`, the survival is inactive: 68%. In the case of `O=C(OCc1cc(=O)n2nc(-c3cccs3)sc2n1)c1ccccc1Br`, the survival was inactive: 83%.

Take `CNc1oc(-c2ccc(COc3ccc(C)cc3)o2)nc1C#N`: the survival is inactive: 82%.

(Values after PubChem BioAssay AID463173 (ICCB-Longwood Screening Facility, Harvard Medical School, 2010).)
